# In US20240173317A1, “METHODS FOR TREATING PROGRESSIVE FAMILIAL INTRAHEPATIC CHOLESTASIS” (MIRUM PHARMACEUTICALS, INC., priority 2022, published 2024):
# Tests used:
# [1] = test system: subjects with PFIC; assay: ItchRO(Obs) pruritus severity, MARCH-PFIC Phase 3 study; format: in vivo, human; conditions: BSEP deficiency group, all study participants, FIG. 10A-C
# Experimental: The primary analysis was conducted in the intent-to-treat (ITT) population of subjects with documented biallelic mutations in ABCB11 (PFIC 2), based on standard-of-care genotyping (primary cohort criteria). Subjects with a predicted complete absence of bile salt excretion pump (BSEP) function based on the type of ABCB11 mutation (PFIC 2), as determined by a standard-of-care genotype, were excluded from the primary cohort and could enroll only in the supplemental cohort. Subjects with other PFIC subtypes (e.g., PFIC 1/3/4/5/6, or new PFIC mutation variants) or postsurgical subjects (e.g., after internal or external biliary diversion surgery or subjects with reversal of biliary diversion surgery) were enrolled in a separate supplemental cohort and evaluated as part of secondary and exploratory analyses. […]
# Efficacy. Severity of pruritus was assessed using the Itch caregiver/patient reported outcome measure (ItchRO™) administered as a twice daily electronic diary. […] Pruritus was assessed and recorded twice daily, via ItchRO, beginning with the day after the screening visit and every day throughout the duration of the study. The severity of pruritus was measured by the completion of the first question in the ItchRO(Obs) (how severe were your child's itch-related symptoms) or ItchRO(Pt) (how itchy did you feel). […]
# [2] = test system: subjects with PFIC; assay: Clinician Scratch Scale (CSS) score, MARCH-PFIC Phase 3 study; format: in vivo, human; conditions: BSEP deficiency group and PFIC group; FIG. 18A-B
# From the text: Clinician Scratch Scale (CSS). The CSS provides an assessment of itch severity. The clinician's assessment of the subject's pruritus focused on scratching and visible damage to the skin as a result of scratching as observed by the physician. The CSS uses a 5-point scale, in which 0 designates no evidence of scratching and 4 designates cutaneous mutilation with bleeding, hemorrhage and scarring. A clinician's assessment of pruritus made by the principal investigator or sub-investigator using the CSS was recorded at screening, baseline, and at additional study visits as outline in Table 2.
# For the PFIC Cohort, PFIC Type is included in the model as an additional covariate.
# Clinician Scratch Scale (CSS) was scored on a 0-4 scale, where 0=none and 4=cutaneous mutilations, haemorrage, and scarring (worst scratching).
compound,measurement,setting,value
"CCCCC1(CCCC)CS(=O)(=O)c2ccc(N(C)C)cc2[C@@H](c2ccc(OCc3ccc(C[N+]45CCN(CC4)CC5)cc3)cc2)[C@H]1O [maralixibat, 1-(4-((4-((4R,5R)-3,3-dibutyl-7-(dimethylamino)-4-hydroxy-1,1-dioxido-2,3,4,5-tetrahydrobenzo[b]thiepin-5-yl)phenoxy)methyl)benzyl)-1,4-diazabicyclo[2.2.2]octan-1-ium]",change from baseline in weekly morning average ItchRO[Obs] score over time,[1],significantly lower at each time point from Week 2 to Week 26
same,CSS score over time,[2],significantly lower at each time point from Week 2 to Week 26
